# Test results from PMC10668032.
# The list shows a part of the results. At the low end of the ranking, values are background and their order means little.
# Biological target: SIX1-Q177R homeodomain (UniProt Q15475)
# Experiment: universal protein binding microarray
# Conditions: Universal all-10-mer PBM (8x60K, AMADID 030236), 300 nM GST-tagged protein, Alexa Fluor 488 anti-GST; buffer, salt, pH and temperature not stated; high values mean tight binding; most listed sequences are background and not binding sites; double strand, one strand shown
row,Sequence,binding signal [E-score]
1,CATGACCC,0.218
2,ACGGGTCA,0.113
3,TAGTTTCA,-0.112
4,ACTCTGGA,0.0683
5,AATTGGTG,0.221
6,CGCGCTGC,-0.0738
7,CATCAGCA,-0.229
8,CATTGAAA,-0.103
9,AAATAAAT,-0.197
10,AACGAATA,-0.284
11,CCCCAACA,0.278
12,TCCCTTAA,0.0808
13,ACACGGCG,0.359
14,CACTACAA,0.236
15,TACCGGTA,0.137
16,CGGACAAC,-0.0272
17,GAGGTTGA,-0.0492
18,AGCCACTG,-0.15
19,CCGATAGC,-0.00916
20,CGTCTACC,-0.109
21,CACTCGAA,0.127
22,ATCGAGTA,-0.0453
23,CACCGGAC,0.315
24,AAAAGGGG,0.0371
25,ACCCAGGA,0.0898

row,Sequence,binding signal [E-score]
1,ATAGTCGA,-0.189
2,CTAACGTA,-0.065
3,TCAGCACA,-0.0748
4,GGAGTCCA,0.0849
5,CTTTTTAA,-0.268
6,CAACCCAC,0.171
7,AAGAATGC,-0.134
8,GATCACCC,0.132
9,AAATGCGT,-0.118
10,ACTTGACT,-0.0543
11,GTGCCCAC,-0.0937
12,TAGTACAA,0.0706
13,GACTTACC,-0.105
14,ACGTTTAC,-0.0176
15,CACACCCG,0.423
16,CAGTTAAG,0.23
17,AAGATTTC,-0.243
18,AGAATGCG,-0.285
19,CGTCATCA,-0.128
20,AGGTCTAC,-0.0453
21,AGCAATCC,-0.183
22,GCAATTGC,-0.226
23,ACGTCCAG,-0.0569
24,CCACTTCG,0.0374
25,AACGGGTA,0.141

row,Sequence,binding signal [E-score]
1,CTGTGGCA,-0.04
2,CGTACAAA,-0.118
3,CTACGCTC,-0.0693
4,ATTAGACG,0.0467
5,ACCGTCGC,0.0136
6,AGCCGAGA,-0.155
7,GTCTAGAC,-0.0532
8,GATGCCAC,-0.196
9,AACATAGT,-0.167
10,AGGGCAAG,0.00769
11,AATTAGGG,0.135
12,GGGCTATA,0.0973
13,CAAGGAGA,-0.181
14,ACAGGGAT,0.111
15,GGACGCGA,0.0375
16,ACTGGTTA,0.0966
17,AATCCCGG,0.0428
18,CATTAAAG,-0.0811
19,GCCGGCGA,-0.0597
20,GGGTGGAC,0.0505
21,AATATCAG,-0.0103
22,ACGATCTC,-0.247
23,ACACACTC,0.314
24,GATACGGC,-0.0772
25,CTATGGCC,-0.221

row,Sequence,binding signal [E-score]
1,CACACTCC,0.291
2,TACCGGGA,-0.0253
3,ACACTACT,0.393
4,CAATCCTG,-0.12
5,AGCAGTAA,-0.0926
6,CAACATCG,-0.193
7,AAGGTTCT,-0.0253
8,CACCAAAC,0.283
9,AAACCTGG,0.169
10,GAAGGTAA,-0.0172
11,TCAGTCCA,-0.0976
12,TGTCCAAA,0.0949
13,ATCTAACC,-0.218
14,CCTCCTTC,-0.061
15,GGTGGAGA,-0.0619
16,ACCAGGGT,0.19
17,GGGTGAGA,0.0782
18,CCGCCAGA,0.061
19,GGGTACAC,0.443
20,CCTATCGA,-0.0816
21,AGCCTCAG,-0.18
22,GCAACCCA,-0.0189
23,ATGGATCG,-0.119
24,CACATCGG,0.0195
25,CACGATGC,0.182

row,Sequence,binding signal [E-score]
1,GCGATGAC,-0.0426
2,GCGCGACA,0.155
3,AGGATTAA,-0.131
4,ATGTGGTC,-0.185
5,AGGACATG,-0.15
6,GAGCGGTA,-0.157
7,TAAGTCAA,-0.229
8,CTCCATTC,0.0123
9,ACACTTAG,0.355
10,CCCATCGG,-0.0481
11,CACACGAC,0.237
12,ACTTAGAA,-0.0549
13,CACCTATC,0.289
14,AGTACGCA,-0.0619
15,TGGGATAA,0.00666
16,CTTGTCAA,0.0395
17,ACTAGCGG,0.0848
18,ACTCAGTC,-0.103
19,AAATGTAC,-0.00885
20,CTCGTAGA,-0.152
21,GACTTATA,-0.137
22,AAGTAGGC,-0.116
23,ACATTCGT,-0.125
24,ACGGTACA,0.118
25,TCACGGAA,-0.078

row,Sequence,binding signal [E-score]
1,CCCGGGCG,0.0228
2,AGACTGTG,-0.261
3,AGGGACGC,-0.0192
4,ACGTGGTA,0.00206
5,TAAATTTA,-0.0495
6,CCTCCAGA,0.0469
7,GACATGTA,-0.0765
8,GAGGACTA,-0.0325
9,CTAGGGAG,0.00188
10,TATAAATA,-0.177
11,CCTGATCG,-0.136
12,CTCTCGCA,-0.0458
13,GGGGGTAC,0.331
14,ACAGCCAC,-0.173
15,AATTCGTA,-0.0821
16,CGATTGGA,-0.0175
17,TCGAACGA,-0.082
18,AGATTGTC,-0.128
19,AAATTCGC,-0.158
20,TCAGGAAA,-0.217
21,AGGAGCCC,-0.184
22,CAAGTCTC,-0.365
23,ATGGCTCG,-0.0827
24,AAACGTCG,-0.16
25,CCCGCGGG,0.0967

row,Sequence,binding signal [E-score]
1,AGCGGGCG,-0.16
2,AGGCTAAG,-0.0968
3,ATTCCTAA,-0.0757
4,ACGTGTAA,0.413
5,AAAACGCG,-0.168
6,ACTTCGCC,-0.163
7,ACAGAACA,0.0648
8,AACGTGAG,-0.0389
9,GGACCGCC,-0.364
10,CCAACCAA,-0.0322
11,AGCGGCGA,-0.0932
12,CCCCATGA,0.151
13,TGCGTACA,0.18
14,GGTCTTCA,-0.215
15,CTACTGGC,-0.249
16,ATCATACG,-0.0376
17,ATTCCTTC,-0.18
18,CGATTGAA,-0.194
19,CAACAAAG,-0.136
20,GAAACACC,0.455
21,CTGATGAC,-0.126
22,ATAGGGAC,-0.0211
23,GAGAAGTA,-0.103
24,ATAATTAG,-0.00722
25,CCGAGACC,0.0743

row,Sequence,binding signal [E-score]
1,ACGGTTCG,-0.146
2,GAGTGTGA,0.29
3,GGGTAGTA,0.161
4,TGTATAAA,0.107
5,ACCGCTTA,0.00813
6,ATGCACAA,-0.134
7,TGAGATCA,-0.102
8,CATCCTGC,-0.242
9,AAGAGGGT,0.0738
10,ATATTCAG,0.00456
11,CAATCAAG,-0.203
12,AATCAGAT,0.0332
13,ACACCTAA,0.445
14,TAAGGTGA,-0.18
15,CAAGTGCC,-0.166
16,ACCACGCT,-0.00512
17,GGTGGGAA,0.125
18,CATTAAGC,-0.183
19,ATCACATG,-0.148
20,AATCGCCA,-0.216
21,AAACACAA,-0.0653
22,GCCCCCAA,-0.0513
23,CGTGTGCC,0.168
24,CCGCCGAA,0.0532
25,ACCCCGCT,0.209

row,Sequence,binding signal [E-score]
1,ATGCGTGA,-0.136
2,ATGAAGTG,0.0483
3,CCAAGTAA,0.0411
4,ATATACAA,-0.0547
5,AGATTAAA,-0.198
6,CCTTTTAC,0.0251
7,ACACGTCC,0.373
8,ATTACCTG,-0.305
9,AACCCATT,-0.103
10,ACGTACGT,-0.0962
11,CGGATCGC,0.00988
12,ATTTCCGC,-0.117
13,CGTCTCCA,-0.00369
14,ACGCTGTC,-0.0679
15,ACCATACG,0.137
16,CCGCCAAG,-0.137
17,AACCCATG,-0.00656
18,CGCGGATC,0.135
19,CCATTGGC,-0.1
20,CTCAGTTA,-0.173
21,ACCGTGCA,0.142
22,AGAAAGCA,-0.107
23,CCGTTGCC,-0.0434
24,GAATTGAC,0.053
25,GCCGTTTA,0.0221

row,Sequence,binding signal [E-score]
1,CCGGACAC,0.427
2,GAAGGCAA,-0.222
3,CTAGGTTC,0.0376
4,CGTAAGAA,-0.151
5,CCTGTATC,-0.0356
6,CAGCTATC,-0.128
7,TGTGTCAA,0.303
8,AGTCGATG,-0.213
9,CGAATGCA,0.00535
10,CCGTTGAA,-0.1
11,AGCTAAAA,-0.168
12,GTGCAGTA,0.021
13,TGTAGACA,0.257
14,AACACAGT,0.158
15,ACATCCTA,-0.152
16,TAATGATA,-0.0829
17,GCGATAAA,-0.103
18,CAGCCTGG,0.106
19,AATACGTG,0.151
20,TGGGTGAA,-0.0462
21,AATCATGC,-0.0292
22,ATCTCACG,-0.18
23,ACACGCGT,0.402
24,CCCTAGAA,0.0766
25,GAGCTCGA,-0.136

row,Sequence,binding signal [E-score]
1,CCTTACCC,0.145
2,ATCGATCG,0.0913
3,CGGTAACC,0.03
4,AGACAAAG,-0.108
5,AGTTTAAA,0.124
6,ACCGCCCG,0.114
7,GCCGCCTA,-0.118
8,GGTGTTCA,0.461
9,CGAGGAAC,0.197
10,ATAGACAC,0.428
11,GGTACAAC,0.0647
12,GTAATAGA,-0.083
13,CTACGAAA,-0.102
14,AGTTATTG,-0.0356
15,GACAGAAC,-0.0609
16,CCTCATAA,0.0335
17,GTCTAGTA,-0.0361
18,CGACCAAC,0.0349
19,AAAGCTCC,0.0235
20,AGCGTGCG,-0.0239
21,CCGAGTGA,0.156
22,CCCTATGA,-0.022
23,CGGTCTAA,-0.13
24,CTAGCGCC,-0.223
25,CTGCGAAA,-0.254

row,Sequence,binding signal [E-score]
1,ACTTTACT,-0.0868
2,AGTATTAT,0.0493
3,AATACGCG,-0.0794
4,ACCGTCCT,-0.0247
5,TCCTGTCA,-0.159
6,ACATTCCG,0.0206
7,ATAACCCA,-0.00351
8,CTCGAAAG,-0.0828
9,CCATACAA,-0.123
10,GTGAGGTA,-0.0122
11,ATGTAGGC,-0.286
12,AACCCTGA,0.0374
13,ATAACAGC,-0.0593
14,CTTCCGAC,0.147
15,CACAACTC,0.0689
16,CCTCGACA,0.218
17,ATGTACGC,0.00258
18,AGCACACT,0.163
19,ACCTTTAA,-0.114
20,ATCGTTAA,-0.113
21,GCTCAACA,-0.00843
22,ACACGAAC,0.343
23,GATGATCC,0.0505
24,AAAGAGTG,0.186
25,CGCCAGAG,-0.0103

row,Sequence,binding signal [E-score]
1,TTAGCCAA,-0.179
2,CTTGTTTA,-0.176
3,CTCACAAG,0.147
4,GTCACTCA,0.0515
5,AAAAGTAC,-0.28
6,TTGATCAA,-0.0492
7,CCCTACTA,0.081
8,ACTCCGCT,0.185
9,GCAATCAA,-0.318
10,GGCTTAAA,-0.201
11,TGGTACCA,-0.173
12,GAAGACAA,-0.0398
13,AGCCCAGC,-0.23
14,GTACGGAC,-0.0307
15,CCGAGTAA,-0.0131
16,AGGTTTCC,-0.139
17,CAAGGTTA,-0.0535
18,AGCCGGTG,0.282
19,ACGGGGAT,0.109
20,ATCTCTCC,-0.193
21,CGTGATAC,0.248
22,ATCCACCG,0.0993
23,CCACTCAA,0.00995
24,GAAGAGTC,0.0321
25,GGCTGTGA,-0.0976

row,Sequence,binding signal [E-score]
1,ATCGGCCC,-0.0955
2,GAGAAGGC,-0.327
3,AGACTGAG,-0.295
4,GACCTACA,0.021
5,CAAATGCC,-0.3
6,ACCGCAGG,0.0897
7,AACTATTG,-0.0834
8,AATCGTAC,-0.135
9,CGCTTCTA,0.0576
10,GCATCCAC,-0.119
11,CTATGGAA,-0.0151
12,CCCCTATC,0.0701
13,CCGTAAGC,-0.0363
14,CAACTGAA,-0.119
15,ACAGAGTA,0.095
16,CATGAGTC,-0.122
17,TGCACTAA,-0.0169
18,ATGACCCC,0.318
19,GAACGGCC,-0.286
